{
  "sequences": {"note": "Protein sequences, listed by entry. Tags and fused reporters are not part of them. Residues count along the entry.", "UniProt Q9C5U2, residues 562-873": "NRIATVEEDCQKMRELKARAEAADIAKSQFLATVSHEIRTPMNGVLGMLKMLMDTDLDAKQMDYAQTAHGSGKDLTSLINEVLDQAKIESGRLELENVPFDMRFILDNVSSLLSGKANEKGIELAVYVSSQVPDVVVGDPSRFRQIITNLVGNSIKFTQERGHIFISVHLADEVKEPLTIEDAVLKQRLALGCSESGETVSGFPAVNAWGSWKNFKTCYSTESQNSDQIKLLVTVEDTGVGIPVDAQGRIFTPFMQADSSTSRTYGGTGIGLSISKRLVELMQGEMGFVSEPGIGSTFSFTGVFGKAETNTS", "UniProt Q9C5U1, residues 425-728": "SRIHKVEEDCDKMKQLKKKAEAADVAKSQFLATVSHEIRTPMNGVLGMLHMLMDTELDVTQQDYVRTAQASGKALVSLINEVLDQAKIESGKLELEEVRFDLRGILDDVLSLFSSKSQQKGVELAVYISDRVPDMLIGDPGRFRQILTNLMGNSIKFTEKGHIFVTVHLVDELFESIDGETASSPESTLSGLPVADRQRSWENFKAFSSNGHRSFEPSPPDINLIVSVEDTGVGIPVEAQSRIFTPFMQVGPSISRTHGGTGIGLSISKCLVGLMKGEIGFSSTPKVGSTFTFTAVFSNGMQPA"},
  "source": "paper PMC2478664",
  "note": "These are yes or no findings as the source states them, for the method shown. Some binding calls cover weakened binding; strength is not graded here. Sequences can lack the tags named with a protein.",
  "data": [
    {"target": "T1, Arabidopsis response regulator 22 (ARR22), yeast two-hybrid fusion (Arabidopsis thaliana) (UniProt Q9M8Y4)", "T1 sequence": "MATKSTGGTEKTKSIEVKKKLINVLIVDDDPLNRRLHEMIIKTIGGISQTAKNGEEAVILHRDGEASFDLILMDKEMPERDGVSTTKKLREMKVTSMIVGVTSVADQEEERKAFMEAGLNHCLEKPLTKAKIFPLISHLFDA", "assay": "two-hybrid; Matchmaker system, yeast strain PJ69-4A; BD-ARR22 bait (pGBKT7-DEST), AD preys (pGADT7-DEST); growth on interaction selective medium (CSM-L-, W-, Ade-) at 28 C and LacZ (beta-galactosidase) activity in extracts of 3 independent clones", "values": [
      {"molecule": "histidine kinase (HK) domain of the cytokinin receptor AHK2, AD fusion (from UniProt Q9C5U2 562-873) (domain or fragment)", "binding": "no binding"},
      {"molecule": "histidine kinase (HK) domain of the cytokinin receptor AHK3, AD fusion (from UniProt Q9C5U1 425-728) (domain or fragment)", "binding": "no binding"},
      {"molecule": "histidine-containing phosphotransfer protein AHP2, AD fusion (protein, UniProt Q9ZNV8 1-156) MDALIAQLQRQFRDYTISLYQQGFLDDQFTELKKLQDDGSPDFVSEVLSLFFEDCVKLISNMARALDTTGTVDFSQVGASVHQLKGSSSSVGAKRVKTLCVSFKECCEAKNYEGCVRCLQQVDIEYKALKTKLQDMFNLEKQIIQAGGIVPQVDIN", "binding": "binds"},
      {"molecule": "histidine-containing phosphotransfer protein AHP3, AD fusion (protein, UniProt Q9SAZ5 1-155) MDTLIAQLQRRFCDFTISLYHQGFLDDQFTELKKLQDECSPDFVAEVVTLFFEDCEKLISNMARALDQTGNVDFKLVGSSVHQLKGSSSSVGAKRVKGLCVTLKECCDSQNYEGCVRCLQQVDIEYKTLKAKLQDLFNLEQQIVQAGGRIPQVDI", "binding": "binds"},
      {"molecule": "histidine-containing phosphotransfer protein AHP5, AD fusion (protein, UniProt Q8L9T7 1-157) MNTIVVAQLQRQFQDYIVSLYQQGFLDNQFSELRKLQDEGTPDFVAEVVSLFFDDCSKLINTMSISLERPDNVDFKQVDSGVHQLKGSSSSVGARRVKNVCISFKECCDVQNREGCLRCLQQVDYEYKMLKTKLQDLFNLEKQILQAGGTIPQVDIN", "binding": "binds"},
      {"molecule": "histidine-containing phosphotransfer protein AHP1, AD fusion (protein, UniProt Q9ZNV9 1-154) MDLVQKQKSLQDYTKSLFLEGILDSQFLQLQQLQDESNPDFVSQVVTLFFQDSDRILNDLSLSLDQQVVDFKKVDPHVHQLKGSSSSIGAQRVKNACVVFRSFCEQQNVEACHRCLQQVKQEYYLVKNRLETLFKLEQQIVASGGMIPAVELGF", "binding": "no binding"},
      {"molecule": "histidine-containing phosphotransfer protein AHP4, AD fusion (protein, UniProt Q9LU15 1-127) MTNIGKCMQGYLDEQFMELEELQDDANPNFVEEVSALYFKDSARLINNIDQALERGSFDFNRLDSYMHQFKGSSTSIGASKVKAECTTFREYCRAGNAEGCLRTFQQLKKEHSTLRKKLEHYFQASQ", "binding": "no binding"},
      {"molecule": "pseudophosphotransfer protein AHP6, AD fusion (protein, UniProt Q9SSC9 1-154) MLGLGVDRLQADINRLLASLFHQGVLDEQFLQLQQLQDETSPNFVYDVINIYFDESEKLLRNLRLLLMDREFSDYKKIGLHLNQLVGSSSSIGARRVRNVCVAFRSASELSNRPGCLRGLEVVEHEYHYLKNMMHELFQLEQQRILAAGVRYPM", "binding": "no binding"},
      {"molecule": "histidine kinase (HK) domain of the ethylene receptor ERS1, AD fusion (domain or fragment, UniProt Q38846 317-613) MHARDQLMEQNFALDKARQEAEMAVHARNDFLAVMNHEMRTPMHAIISLSSLLLETELSPEQRVMIETILKSSNLVATLISDVLDLSRLEDGSLLLENEPFSLQAIFEEVISLIKPIASVKKLSTNLILSADLPTYAIGDEKRLMQTILNIMGNAVKFTKEGYISIIASIMKPESLQELPSPEFFPVLSDSHFYLCVQVKDTGCGIHTQDIPLLFTKFVQPRTGTQRNHSGGGLGLALCKRFVGLMGGYMWIESEGLEKGCTASFIIRLGICNGPSSSSGSMALHLAAKSQTRPWNW", "binding": "no binding"},
      {"molecule": "Arabidopsis response regulator 22 (ARR22), yeast two-hybrid fusion (protein, UniProt Q9M8Y4 1-142) MATKSTGGTEKTKSIEVKKKLINVLIVDDDPLNRRLHEMIIKTIGGISQTAKNGEEAVILHRDGEASFDLILMDKEMPERDGVSTTKKLREMKVTSMIVGVTSVADQEEERKAFMEAGLNHCLEKPLTKAKIFPLISHLFDA", "binding": "no binding"}
    ]}
  ]
}
